Read counts are not given, so values of variants with three or more changes are uncertain.
B1: CPEB3 Ribozyme (parent)
chain: UAACAGGGGGCCACAGCAGAAGCGUUCACGUCGCAGCCCCUGUCAGAUUCUGGUGAAUCUGCGAAUUCUGCUGUAUAUCUC

Variants of: B1
Assay: self-cleavage, relative activity (ratio to wild type); higher = more cleavage; in vitro, sequencing
Procedure, shortened: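 Barcoded CPEB3 ribozyme mutants, produced by rounds of error-prone PCR, self-cleaved while being transcribed with T7 RNA polymerase for 5 hours at 37°C and during a subsequent 15 min DNase I step before EDTA was added. Sequencing of template-switched cDNA on Illumina gave cleaved and total reads, and DNA sequencing assigned barcodes to variants. Each variant's relative activity is its cleaved/total read fraction divided by the unmutated ribozyme's fraction, averaged across three batches. A variant needed a minimum of 5 reads.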

Variant | self-cleavage
UAACAGGGGGCCACAGCAGAAGCGUUCACGUCGCAGCCCCUGUCAGAUUCUGGUGAAUCUGCGAAUUCUGCCGCACAUCUC | 1.2
UAACAGGGGGCCACAGCAGAAGCGUUCACGUCGCAGCCCCUGUCAGAUUCUGGUGAAUCUGCGAAUUCUGCUAUUUACCUC | 1.32
UAACAGGGGGCCACAGCAGAAGCGUUCACGUCGCAGCCCCUGUCAGAUUCUGGUGAAUCUGCGAAUUCUGCCAUAUAUCCC | 1.32
UAACAGGGGGCCACAGCAGAAGCGUUCACGUCGCAGCCCCUGUCAGAUUCUGGUGAAUCUGCGAAUUCUGCAGUAGACCUC | 0.62

Reference: the RNAGym collection of RNA variant scans (doi:10.1093/nar/gkz1192)
